Measurements from PMC6446853.
Results are given in words; binding and its absence hold for the method and conditions named. Binding seen in cells or lysates may run through a third protein. Some binding calls cover weakened binding; strength is not graded here.

Sequences of proteins named here, by UniProt entry; tags and fusion partners are left off.
UniProt P14635: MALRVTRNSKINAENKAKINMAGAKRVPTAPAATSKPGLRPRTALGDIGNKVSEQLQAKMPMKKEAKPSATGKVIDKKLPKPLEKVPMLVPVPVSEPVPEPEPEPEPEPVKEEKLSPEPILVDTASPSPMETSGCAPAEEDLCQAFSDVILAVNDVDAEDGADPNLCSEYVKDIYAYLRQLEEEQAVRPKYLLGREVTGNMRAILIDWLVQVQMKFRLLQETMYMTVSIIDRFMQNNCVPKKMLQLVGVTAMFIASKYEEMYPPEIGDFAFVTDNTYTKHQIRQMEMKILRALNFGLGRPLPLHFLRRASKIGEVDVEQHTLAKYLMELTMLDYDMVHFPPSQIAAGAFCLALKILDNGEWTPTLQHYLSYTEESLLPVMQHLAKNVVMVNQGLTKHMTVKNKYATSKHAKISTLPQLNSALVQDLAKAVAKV
UniProt P20248: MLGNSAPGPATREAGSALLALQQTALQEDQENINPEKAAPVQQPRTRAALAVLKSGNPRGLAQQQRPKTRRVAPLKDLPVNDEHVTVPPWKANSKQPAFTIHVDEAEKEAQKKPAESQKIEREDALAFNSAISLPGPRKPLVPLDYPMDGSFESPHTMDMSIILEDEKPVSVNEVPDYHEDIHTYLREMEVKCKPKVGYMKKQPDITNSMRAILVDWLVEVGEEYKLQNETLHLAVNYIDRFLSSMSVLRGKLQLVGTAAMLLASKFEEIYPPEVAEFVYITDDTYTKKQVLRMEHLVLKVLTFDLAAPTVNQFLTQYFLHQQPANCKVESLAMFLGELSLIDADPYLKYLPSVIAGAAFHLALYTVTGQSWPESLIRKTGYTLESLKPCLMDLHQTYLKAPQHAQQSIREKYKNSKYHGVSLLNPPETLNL
UniProt O95067: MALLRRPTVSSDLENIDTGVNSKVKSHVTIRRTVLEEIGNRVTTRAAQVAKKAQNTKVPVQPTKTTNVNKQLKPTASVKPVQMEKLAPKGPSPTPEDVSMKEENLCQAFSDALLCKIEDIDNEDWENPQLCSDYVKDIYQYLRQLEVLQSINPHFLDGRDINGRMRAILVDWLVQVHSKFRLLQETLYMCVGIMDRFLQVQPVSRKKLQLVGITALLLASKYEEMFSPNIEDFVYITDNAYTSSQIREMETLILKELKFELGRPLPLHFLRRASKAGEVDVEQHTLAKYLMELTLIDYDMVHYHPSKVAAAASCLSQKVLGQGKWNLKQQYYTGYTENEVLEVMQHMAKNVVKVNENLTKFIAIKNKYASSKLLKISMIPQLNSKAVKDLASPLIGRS

Experiments:
Myc-CCNB1 (human) = Myc-CCNB1 (human) (UniProt P14635); experiment: co-IP; HEK293T cotransfected for 20 h with Myc-cyclin and mCherry-MAD1; Myc IP with 9E10 mAb; Western blot for mCherry
Myc-CCNA2 (human) = Myc-CCNA2 (human) (UniProt P20248); experiment: as above
Myc-CCNB2 (human) = Myc-CCNB2 (human) (UniProt O95067); experiment: as above
[1] = biological target: CCNB1-mCherry (cyclin B1 tagged at the endogenous locus) (human (endogenous in HeLa)) (UniProt P14635); experiment: co-IP; CCNB1-mCherry precipitated with anti-mCherry antibodies from CCNB1-mCh or parental HeLa cells arrested in mitosis; Western blotting; also tested without ongoing MPS1 activity (Fig. S2 B)

binding (Myc-CCNB1 (human))	binding (Myc-CCNA2 (human))	binding (Myc-CCNB2 (human))	binding [1]	Binder
binds	no binding	no binding		full-length mCh-MAD1 (protein, UniProt Q9Y6D9 1-718) MEDLGENTMVLSTLRSLNNFISQRVEGGSGLDISTSAPGSLQMQYQQSMQLEERAEQIRSKSHLIQVEREKMQMELSHKRARVELERAASTSARNYEREVDRNQELLTRIRQLQEREAGAEEKMQEQLERNRQCQQNLDAASKRLREKEDSLAQAGETINALKGRISELQWSVMDQEMRVKRLESEKQELQEQLDLQHKKCQEANQKIQELQASQEARADHEQQIKDLEQKLSLQEQDAAIVKNMKSELVRLPRLERELKQLREESAHLREMRETNGLLQEELEGLQRKLGRQEKMQETLVGLELENERLLAKLQSWERLDQTMGLSIRTPEDLSRFVVELQQRELALKDKNSAVTSSARGLEKARQQLQEELRQVSGQLLEERKKRETHEALARRLQKRVLLLTKERDGMRAILGSYDSELTPAEYSPQLTRRMREAEDMVQKVHSHSAEMEAQLSQALEELGGQKQRADMLEMELKMLKSQSSSAEQSFLFSREEADTLRLKVEELEGERSRLEEEKRMLEAQLERRALQGDYDQSRTKVLHMSLNPTSVARQRLREDHSQLQAECERLRGLLRAMERGGTVPADLEAAAASLPSSKEVAELKKQVESAELKNQRLKEVFQTKIQEFRKACYTLTGYQIDITTENQYRLTSLYAEHPGDCLIFKATSPSGSKMQLLETEFSHTVGELIEVHLRRQDSIPAFLSSLTLELFSRQTVA
			binds	MAD1 (endogenous) (protein, UniProt Q9Y6D9 1-718) MEDLGENTMVLSTLRSLNNFISQRVEGGSGLDISTSAPGSLQMQYQQSMQLEERAEQIRSKSHLIQVEREKMQMELSHKRARVELERAASTSARNYEREVDRNQELLTRIRQLQEREAGAEEKMQEQLERNRQCQQNLDAASKRLREKEDSLAQAGETINALKGRISELQWSVMDQEMRVKRLESEKQELQEQLDLQHKKCQEANQKIQELQASQEARADHEQQIKDLEQKLSLQEQDAAIVKNMKSELVRLPRLERELKQLREESAHLREMRETNGLLQEELEGLQRKLGRQEKMQETLVGLELENERLLAKLQSWERLDQTMGLSIRTPEDLSRFVVELQQRELALKDKNSAVTSSARGLEKARQQLQEELRQVSGQLLEERKKRETHEALARRLQKRVLLLTKERDGMRAILGSYDSELTPAEYSPQLTRRMREAEDMVQKVHSHSAEMEAQLSQALEELGGQKQRADMLEMELKMLKSQSSSAEQSFLFSREEADTLRLKVEELEGERSRLEEEKRMLEAQLERRALQGDYDQSRTKVLHMSLNPTSVARQRLREDHSQLQAECERLRGLLRAMERGGTVPADLEAAAASLPSSKEVAELKKQVESAELKNQRLKEVFQTKIQEFRKACYTLTGYQIDITTENQYRLTSLYAEHPGDCLIFKATSPSGSKMQLLETEFSHTVGELIEVHLRRQDSIPAFLSSLTLELFSRQTVA
